These results are taken from the supplement of paper PMC10126150.

Sequences with one replicate were seen in a single cluster, so their values are uncertain.

In the data set the test system is ATP. As to the kind of experiment: switch fluorescence ratio, 500 uM ATP over buffer (Cy3 cluster intensity, sum of 5 cycles each) (fold (ratio)); higher = stronger signal-on switching upon ATP binding; sequences stand for … in TCGTCGGCAGCGTCAGATGTGTATAAGAGACAGTTTTTTTTTTTTTTTTTTTTTTTTT…TC. The note with it: aptamer strand: ATP DNA aptamer (quencher-CACCTGGGGGAGTATTGCGGAGGAAGG + anchor), 100 nM annealed; ATP concentration: 500 uM; one replicate. Put shortly: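 Per cluster, summed Cy3 intensity from the target cycles was divided by that from the buffer cycles to give the fluorescence ratio, then averaged per switch-domain sequence. Clusters outside 100-1000 RFU were excluded. The Cy3-labelled switching-strand clusters, on a modified Illumina MiSeq flow-cell, were annealed to 100 nM quencher-labelled ATP aptamer and imaged in selection buffer, then after 15 min with 500 uM ATP at 22 °C, for five cycles with NaOH stripping and re-annealing between them.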
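Further: ATP exposure 15 min at 22 °C before imaging.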

Take GATATACAGA: the switch fluorescence ratio was found to be 1.04. CTTGGGCAAA: the switch fluorescence ratio turned out to be 1.06. Turning to AATTTTAGCG, the switch fluorescence ratio amounted to 1. Take TGACATATA: the switch fluorescence ratio came to 1.15.

With AAACTCCTGA, the switch fluorescence ratio amounted to 1.01. Under GGGGATCACC stands 1.01; under TGTGTTAAGC, 1.01. Consider GCATCAGCTG, for which the switch fluorescence ratio came to 0.986. With GGCTTAAGTC, the switch fluorescence ratio was 0.969. For the sequence CTGGGACTTT, the switch fluorescence ratio stood at 0.993. Under TATGTCCGAT stands 0.972; under CTTGGTTATC, 1.04; under CAGAATCGGG, 1.03. For CGTTGGATCG, the switch fluorescence ratio came out at 1.07. Under GTTTTGACCA stands 0.98. Consider AACCAGGTCG, for which the switch fluorescence ratio worked out at 1.11. Consider ACCGTACCGA, for which the switch fluorescence ratio worked out at 1.64. As for TTGAATCCTG, the switch fluorescence ratio worked out at 1.02. For the sequence TGTAGAAGGT, the switch fluorescence ratio was 1.06.

Regarding GCACTCTCCG, the switch fluorescence ratio came out at 1.24. As to ACCTTGTACG, the switch fluorescence ratio came out at 1.09.

Take TCGGTCACTG: the switch fluorescence ratio was found to be 1.02. Regarding AGCTGTATGT, the switch fluorescence ratio was 0.96. In the case of GGCCAAGCTA, the switch fluorescence ratio was 0.967. As for GTCAACTACG, the switch fluorescence ratio came out at 1.08. Take CCTGACAACA: the switch fluorescence ratio was found to be 1.11. Regarding CTTTTACTGG, the switch fluorescence ratio came to 1.01. For CAATCTAAAC, the switch fluorescence ratio amounted to 1.02.

ACGGTTGCTA: the switch fluorescence ratio was found to be 1.01. Turning to TTGTCTTGCT, the switch fluorescence ratio came to 0.962.

As for CCCTCTAAGG, the switch fluorescence ratio was 1.06. Under CCCGTTTAAC stands 1.27. Take AGATCGACAG: the switch fluorescence ratio turned out to be 1.04.

Regarding CGGCTTTGTC, the switch fluorescence ratio came out at 0.998. Under AACAGGATAC stands 1.11; under CCGATGGAAG, 1.22; under GGCGCCGGAG, 1.04. For AGGAAAAGAG, the switch fluorescence ratio stood at 1.01.

Consider ACATGGGTTT, for which the switch fluorescence ratio worked out at 0.973. On to TGGGGCCGGA, for which the switch fluorescence ratio stood at 0.994. For the sequence TTTAAGGGAG, the switch fluorescence ratio is 0.983. Under GTCGCTAAAA stands 1.05. Regarding GACCTGCGTG, the switch fluorescence ratio was 1.01. For GGAGGCGTCA, the switch fluorescence ratio was found to be 1.03. Under CGCAGATAGC stands 1.79; under TCATCGCAGC, 2.81; under ATTTCAGCAT, 1.11.

Take TAATCGTCTT: the switch fluorescence ratio is 1.01.

With GCATACACGC, the switch fluorescence ratio is 1.09. For the sequence AGTACCGTGT, the switch fluorescence ratio is 1.01. GCCGCGAGA: the switch fluorescence ratio worked out at 1.24. In the case of ACTACATGGT, the switch fluorescence ratio is 1.02.

With TGGCACGTGT, the switch fluorescence ratio was 1.04.

TCAAAGCCCA: the switch fluorescence ratio came to 0.999. Regarding GTAGTCAGGT, the switch fluorescence ratio was found to be 0.987.

In the case of TATGCGGTAG, the switch fluorescence ratio amounted to 1.04. Turning to AAATCCTGGG, the switch fluorescence ratio came to 1.06.

In the case of AGGATAATAC, the switch fluorescence ratio worked out at 1.35. For the sequence CTGGGAAAAC, the switch fluorescence ratio is 1.02. As for GCGTGCGGAC, the switch fluorescence ratio stood at 1.04.

Consider GGCGGATGTG, for which the switch fluorescence ratio stood at 0.967. For GTTGCTGAAC, the switch fluorescence ratio turned out to be 1.03. Under CTGGGGACT stands 0.98.

GGTAGACAGG: the switch fluorescence ratio worked out at 1.04. Turning to ATCCAGAACT, the switch fluorescence ratio turned out to be 1.

Consider TATTGTGGTC, for which the switch fluorescence ratio is 1.03.

Take GCGTTTGAAG: the switch fluorescence ratio worked out at 1. As to AGACCACCTA, the switch fluorescence ratio was 1.16. In the case of TACACGCCAG, the switch fluorescence ratio worked out at 1.08. In the case of GGTACCAAAC, the switch fluorescence ratio is 1. Under ACACACTAAA stands 1.23; under CGGACAGATG, 1.02.

For the sequence GAGGGCCA, the switch fluorescence ratio was 0.993. Turning to TACGGAGAGG, the switch fluorescence ratio was 1.07. With CAATTTAGTT, the switch fluorescence ratio came out at 0.977. Under GGGCCCATGG stands 1.02; under TCCGGGAGTC, 1.25; under CGTAAAGAC, 2.12.

Turning to TGGTCAGTCA, the switch fluorescence ratio is 0.973.

For the sequence AGAGAGGGGA, the switch fluorescence ratio worked out at 0.973. With GGTATGGGTT, the switch fluorescence ratio came out at 0.983. For the sequence GCGAGAATG, the switch fluorescence ratio came to 0.984. ACGTCACTCT: the switch fluorescence ratio is 1.62. On to GGCATGCA, for which the switch fluorescence ratio was found to be 0.986. Under TGTCAACTGA stands 1.05; under GAAAACGATA, 1.02. Turning to GTAAAACGCC, the switch fluorescence ratio is 1.07. As for ATTATGCCCC, the switch fluorescence ratio was determined as 0.991. Under CTTTTGAGTG stands 0.949; under GCATTATACG, 1.22; under CGTAGGCTTT, 0.981.

With ATCCTTTGGT, the switch fluorescence ratio was 0.956. Regarding TGGGGGAG, the switch fluorescence ratio stood at 1.03. As for GATATGCATA, the switch fluorescence ratio was found to be 1.06. With GGATGAGAAG, the switch fluorescence ratio stood at 0.981. CGGTGGCAAT: the switch fluorescence ratio came to 1.84. Under CAGTGCGTAG stands 1.03; under TCTGATGC, 1.26. For TGGCGGGACG, the switch fluorescence ratio stood at 0.913. With GAGTCATATA, the switch fluorescence ratio was found to be 1.04.

For GGTGGGTGCC, the switch fluorescence ratio is 1.04. Turning to AATGACTTAG, the switch fluorescence ratio came to 1.02.

On to TAATGTAGGA, for which the switch fluorescence ratio stood at 0.962. For GCGTCACATT, the switch fluorescence ratio is 1.01. Under TGTCATTTA stands 1.03; under CCGCAGACCA, 5.01. On to ATCCGATAAG, for which the switch fluorescence ratio came to 0.999.

In the case of AGCTGGGGCG, the switch fluorescence ratio is 1.02.

As to AGCACGAGTA, the switch fluorescence ratio is 1.

For ATGGCACCCG, the switch fluorescence ratio worked out at 1.07.

Regarding GCGTGGCTTA, the switch fluorescence ratio was 1.04. As to TACACTTATG, the switch fluorescence ratio worked out at 1.03. Regarding ACCCGACCCG, the switch fluorescence ratio was 1.2. For CTAGCGAGTT, the switch fluorescence ratio worked out at 1.01.

Regarding AAGTTGCAAT, the switch fluorescence ratio was determined as 1.08. Under TTTAGGTGTC stands 1.04. Turning to ACGGTGGGCG, the switch fluorescence ratio worked out at 0.967.

As to CCTTTTCTTC, the switch fluorescence ratio stood at 0.964. Under GTGACTGAGC stands 0.949; under CGCAGACTAA, 1.36.
